# Measured values: PubChem BioAssay AID463173 (ICCB-Longwood Screening Facility, Harvard Medical School, 2010)
# Hit rate of the full screen: of about 52,000 compounds, about 1,700 (3.3%) were called active. Cut-off read from the data, not from the text of the source: active = survival mostly below about 52% (no sharp cut-off); inactive = mostly above about 56%. Some of the results follow.
# Test system: Wild type
# Assay: S. aureus survival, RN4220 and DeltatarO strains – OD600, teichoic acid synthesis inhibitors, primary screen (AID 463173)
# Conditions: S. aureus RN4220 wild type/DeltatarO growth, OD600, 18 h, stronger effect = lower value, screened at 18.75 µg/mL (by protocol)
row,SMILES,survival
1,COc1ccc(C(=O)Nc2ccc(-n3nncc3-c3ccc(OC)c(OC)c3)cc2)cc1,inactive: 74%
2,Cc1ccc(-c2cc(C(=O)O)n(Cc3ccccc3)n2)cc1,inactive: 63%
3,Cc1ccc(CNc2ccc(-c3nc(-c4ccco4)no3)cc2[N+](=O)[O-])cc1,inactive: 84%
4,Cc1nn(CC(=O)NCCc2ccccc2Cl)c(=O)c2nn(-c3ccccc3)c(C)c12,inactive: 128%
5,CCNC(=O)NC1(C(=O)N2CCC(Cc3ccccc3)CC2)CCCCC1,inactive: 114%
6,O=S(=O)(c1ccccc1)N1CCC(c2ccncc2)CC1,inactive: 76%
7,CCOc1ccc(CNC(=O)Cn2nc(C)c3nn(-c4ccc(Cl)cc4)c(C)c3c2=O)cc1OC,inactive: 81%
8,O=C1COc2cc(S(=O)(=O)CCC(=O)N3CCN(c4cccc(Cl)c4)CC3)c(Cl)cc2N1,inactive: 60%
9,CCC(C)NC(=O)c1sc2nc(C)c(C(=O)Nc3ccc(C)cc3C)c(-c3ccc(Cl)cc3)c2c1N (centres undefined),inactive: 70%
10,Cc1ccc2c(c1)c1c(c(=O)n(-c3ccccc3C)c(=O)n1CC(=O)NCCC1=CCCCC1)n2C,inactive: 74%
11,CC(=O)c1cc(-c2ccc(F)cc2)n(CCC(=O)Nc2nc3c(C)cccc3s2)c1C,inactive: 68%
12,CCN(CC)C(=O)C1CCN(S(C)(=O)=O)CC1,inactive: 102%
13,COc1ccc(CNCc2c(C(=O)O)c(C)n(Cc3ccc(Cl)cc3)c2C)c(OC)c1,inactive: 101%
14,Cc1ccc(Cc2nc3ccccc3nc2SCC(=O)Nc2cccc(C(F)(F)F)c2)cc1,inactive: 60%
15,COc1ccccc1/C=N/NC(=O)c1ccc(=O)n(C)c1,inactive: 108%
16,Cc1ccc(-c2cc(C(=O)Nc3c(C(=O)c4ccccc4)oc4ccccc34)no2)cc1F,inactive: 82%
17,Cc1ccc(-n2ncc3c(NC4CCCCC4)ncnc32)cc1,inactive: 72%
18,O=C(CNCC1CCCO1)N1CCCC1 (centres undefined),inactive: 87%
19,O=C(CN1CCSc2ccccc21)N1CCN(c2cccc(Cl)c2)CC1,inactive: 111%
20,COC(=O)c1cnn(-c2ccc(C(=O)Nc3ccc(C(C)=O)cc3)cc2)c1N,inactive: 45%
21,O=C(Nc1nc2ccccc2s1)NC1CCCCC1,inactive: 112%
22,CSc1nsc(NC(=O)Nc2ccccc2C(F)(F)F)n1,inactive: 77%
23,C(=Nc1ccccc1)c1ccc(N2CCOCC2)cc1,inactive: 93%

row,SMILES,survival
1,CCOC(=O)C1=CN(O)/C(=C\N=O)C=C1,inactive: 113%
2,CC(C)(C)c1ccc(S(=O)(=O)NCc2nc3cccnc3n2Cc2ccccc2Cl)cc1,active: 14%
3,O=C(c1ccc(S(=O)(=O)N2CCOCC2)cc1)n1nnc2ccccc21,inactive: 110%
4,Cc1ccc(CNS(=O)(=O)c2c(C)nc3scc(C)n3c2=O)cc1,inactive: 130%
5,CC(C)c1ccccc1NC(=O)CN1C(=O)c2cccc3cccc1c23,inactive: 74%
6,O=C(CN1CCCCC1)N1CCc2ccccc21,inactive: 110%
7,Cc1nc(N2CCCC2)c2c(C(=O)N3CCN(c4cccc(C)c4C)CC3)c(C)oc2n1,inactive: 75%
8,CCC(=O)Nc1ccc2nc(SCc3ccc(C)cc3)sc2c1,inactive: 92%
9,O=C(CSc1nc(-c2ccccc2)[nH]c1-c1ccccc1)Nc1ccc2c(c1)OCCO2,inactive: 70%
10,Cc1ccc(Nc2cc(C)c(C#N)c3nc4ccccc4n23)cc1Cl,inactive: 87%
11,NC(=O)c1ccc(N2CCCCC2)c(N2C(=O)C3CC=CCC3C2=O)c1 (centres undefined),inactive: 104%
12,CCCSCCCNC(=O)c1ccc2c(c1)nc1n2CCCCC1,inactive: 69%
13,CN(CC(=O)Nc1ccccc1Cl)S(=O)(=O)c1ccc(C(=O)N2CCOCC2)s1,inactive: 73%
14,COc1ccc(S(=O)(=O)N2CCN(Cc3ccc4c(c3)OCO4)CC2)cc1OC,inactive: 78%
15,CC(C)c1cc(-c2nc(-c3ccccc3)no2)n[nH]1,inactive: 71%
16,COCCNC(=O)c1nn(-c2ccc(Cl)cc2)nc1CO,inactive: 89%
17,COc1ccc(CNC(=O)c2cc3c(=O)n(C)c4ccccc4c3n2C)cc1,inactive: 90%
18,Cn1cnc(S(=O)(=O)N2CCC(C(=O)NCc3ccc(Cl)cc3)CC2)c1,inactive: 95%
19,O=C(CSc1ccccc1)NCc1ccc2c(c1)CCN2C(=O)c1ccc(F)cc1,inactive: 79%
20,O=C(Cc1ccccc1)N(Cc1cccnc1)c1nc2ccc(F)cc2s1,inactive: 91%
21,CCc1ccc2oc(-c3ccc(NC(=O)c4cc(OC)c(OC)c(OC)c4)cc3)nc2c1,inactive: 71%
22,CCOC(=O)c1ccc(N2C(=O)c3[nH]nc(-c4ccc(OCC)cc4)c3C2c2ccc(OC)cc2OC)cc1 (centres undefined),inactive: 118%
23,CCOc1cc(C2CC(=O)Nc3nc(SCc4ccccc4)[nH]c(=O)c32)ccc1O (centres undefined),inactive: 106%

row,SMILES,survival
1,CCc1ccc(CNC(=O)CCCN2C(=O)c3cccnc3Oc3ccc(Cl)cc32)cc1,inactive: 70%
2,Cc1ccccc1-c1nnc(C2CCN(S(=O)(=O)c3ccc(Cl)cc3)CC2)o1,inactive: 88%
3,O=C(COc1ccccc1)Nc1nnc(S(=O)(=O)N2CCCCCC2)s1,inactive: 84%
4,Cc1ccc2c(c1)N(C(=O)N1CCC(C(=O)NCc3cccs3)CC1)CC(C)O2 (centres undefined),inactive: 85%
5,COc1ccc(CNC(=O)c2cc3c(=O)[nH]c4ccccc4c3n2C)c(OC)c1,inactive: 76%
6,Cc1nn2c(=O)cc(COC(=O)C(c3ccccc3)c3ccccc3)nc2s1,inactive: 72%
7,COc1ccc(CCNC(=O)CCCn2c(=O)c3ccccc3n(CC(=O)Nc3ccc(C)cc3Cl)c2=O)cc1OC,inactive: 134%
8,CC(NC(=O)CN1C(=O)COc2ccc(Cl)cc21)c1ccccc1 (centres undefined),inactive: 127%
9,COc1ccc(Cl)cc1NC(=O)NCc1noc2ccccc12,inactive: 77%
10,Cc1cccc(N(CC(=O)NCCSc2ccc(Cl)cc2)S(C)(=O)=O)c1C,inactive: 60%
11,Cc1ccc(-c2c(C(=O)N(C)Cc3ccccc3)oc(=O)c3ccccc23)cc1,active: 11%
12,COc1ccc(CSC(=N)N)cc1Cl,inactive: 104%
13,C/C(Cc1ccccc1)=N\NC(=O)c1cc(C(C)(C)C)[nH]n1,inactive: 106%
14,Cc1ccc(NC(=O)C2CCN(C(=O)c3cnn(-c4ccccc4)c3-n3cccc3)CC2)cc1C,inactive: 84%
15,CC(C)c1ccc(NC(=O)CCNS(=O)(=O)c2ccc3c(c2)oc(=O)n3C)cc1,inactive: 84%
16,C=C(C)Cn1c(SCC(=O)Nc2cccc(C)c2)nc2sc3c(c2c1=O)CCCC3,inactive: 120%
17,COC(=O)c1nnn(-c2ccc(Cl)cc2)c1C(=O)OC,inactive: 130%
18,O=C(CCS(=O)(=O)c1nc(-c2ccc3c(c2)OCO3)cc(C(F)(F)F)n1)Nc1ccc(F)cc1F,inactive: 77%
19,CCS(=O)(=O)c1ncc(Cl)c(C(=O)Nc2c(C(=O)c3ccc(C)cc3)oc3ccccc23)n1,inactive: 77%
20,Cc1ccc(-n2ncc(C(=O)N3CCN(C(=O)c4ccco4)CC3)c2C2CCN(C(=O)OC(C)(C)C)CC2)cc1,inactive: 66%
21,O=C(CN1CCCN(Cc2cccc(F)c2)S1(=O)=O)Nc1ccc2c(c1)OCCO2,inactive: 77%
22,O=C(NCC(c1cccnc1)N1CCc2ccccc2C1)C(=O)Nc1ccc(F)cc1F (centres undefined),inactive: 104%
23,Cc1cccc(-c2nc(C)c(CCNC(=O)c3cccs3)s2)c1,inactive: 66%

row,SMILES,survival
1,COc1cccc(-c2cn3c(n2)sc2cc(C(=O)NCCC4=CCCCC4)ccc23)c1,inactive: 59%
2,CCc1ccc2[nH]c(=O)c(CNCCO)cc2c1,inactive: 105%
3,O=C(CSc1oc(-c2ccc(F)cc2)nc1S(=O)(=O)c1ccc(Cl)cc1)c1ccccc1,inactive: 63%
4,Cc1cccc(CCNC(=O)c2nn(C)c3c2CSc2ccccc2-3)c1,inactive: 87%
5,O=C(c1ccc2c(c1)N(Cc1cccc(Cl)c1)C(=O)c1ccccc1S2(=O)=O)N1CCCCCC1,inactive: 73%
6,CCOc1ccc(CN(C(=O)c2cc(=O)c3cc(Cl)ccc3o2)C2CCS(=O)(=O)C2)cc1 (centres undefined),inactive: 112%
7,CCCCOC(=O)c1c(C)oc2ccc(NS(=O)(=O)c3ccc(F)cc3C)cc12,active: 1%
8,CCc1ccc(CNc2ncnc3onc(-c4ccc(Cl)cc4)c23)cc1,inactive: 48%
9,Clc1ncnc2sc3c(c12)CCCC3,inactive: 108%
10,COc1ccc(N2CCN(C(CNC(=O)c3cccc(OC)c3)c3cccnc3)CC2)cc1 (centres undefined),inactive: 82%
11,COc1ccc(-c2cc(C(F)(F)F)n3nc(C(=O)Nc4sc5c(c4C(=O)OC(C)C)CCCC5)cc3n2)cc1OC,inactive: 140%
12,CCN(CC)C(=O)C1CCN(c2cc(C)nc3c(-c4ccc(OC)c(OC)c4)c(C)nn23)CC1,inactive: 96%
13,CCCCNC(=O)CSC1=Nc2ccccc2C2=NC(CCC(=O)NCc3ccccc3OC)C(=O)N12 (centres undefined),active: -2%
14,COc1ccc(NC(=O)Cn2c(=O)n(-c3ccc(C)c(C)c3)c(=O)c3c4c(sc32)CCCCC4)cc1Cl,inactive: 94%
15,CCc1ccc(NC(=O)CSc2cn(CC(=O)N3CCOCC3)c3ccccc23)cc1,inactive: 98%
16,Cn1c(C(=O)N2CCCC(C(=O)N3CCN(c4ccccc4)CC3)C2)cc2sccc21 (centres undefined),inactive: 79%
17,COc1ccc(CCNC(=O)c2cc(=O)c3c(C)cc(C)cc3o2)cc1OC,inactive: 82%
18,CC(CC(=O)NCc1ccc(Cl)cc1Cl)CC1=NS(=O)(=O)c2ccccc2N1 (centres undefined),inactive: 128%
19,Cc1ccc(/C=C/c2nc3ccccc3n2S(=O)(=O)c2cccc(Cl)c2)cc1,inactive: 73%
20,COc1cc2c(cc1OC)n(CC(=O)Nc1ccccc1)c(=O)n1nc(-c3ccccc3)nc21,inactive: 77%
